Source: paper PMC4336329 (PLoS ONE, 2015)
Among all 310,000 compounds or so, about 2,200 (0.71%) showed an effect of 50% or more. Effects have a minus sign here. This is one part of the list.

target: human ether-à-go-go-related gene (hERG) potassium channel (human, UniProt Q12809); assay: primary screen, population patch clamp on CHO cells stably expressing hERG
Sequence (Q12809 whole entry, looked up): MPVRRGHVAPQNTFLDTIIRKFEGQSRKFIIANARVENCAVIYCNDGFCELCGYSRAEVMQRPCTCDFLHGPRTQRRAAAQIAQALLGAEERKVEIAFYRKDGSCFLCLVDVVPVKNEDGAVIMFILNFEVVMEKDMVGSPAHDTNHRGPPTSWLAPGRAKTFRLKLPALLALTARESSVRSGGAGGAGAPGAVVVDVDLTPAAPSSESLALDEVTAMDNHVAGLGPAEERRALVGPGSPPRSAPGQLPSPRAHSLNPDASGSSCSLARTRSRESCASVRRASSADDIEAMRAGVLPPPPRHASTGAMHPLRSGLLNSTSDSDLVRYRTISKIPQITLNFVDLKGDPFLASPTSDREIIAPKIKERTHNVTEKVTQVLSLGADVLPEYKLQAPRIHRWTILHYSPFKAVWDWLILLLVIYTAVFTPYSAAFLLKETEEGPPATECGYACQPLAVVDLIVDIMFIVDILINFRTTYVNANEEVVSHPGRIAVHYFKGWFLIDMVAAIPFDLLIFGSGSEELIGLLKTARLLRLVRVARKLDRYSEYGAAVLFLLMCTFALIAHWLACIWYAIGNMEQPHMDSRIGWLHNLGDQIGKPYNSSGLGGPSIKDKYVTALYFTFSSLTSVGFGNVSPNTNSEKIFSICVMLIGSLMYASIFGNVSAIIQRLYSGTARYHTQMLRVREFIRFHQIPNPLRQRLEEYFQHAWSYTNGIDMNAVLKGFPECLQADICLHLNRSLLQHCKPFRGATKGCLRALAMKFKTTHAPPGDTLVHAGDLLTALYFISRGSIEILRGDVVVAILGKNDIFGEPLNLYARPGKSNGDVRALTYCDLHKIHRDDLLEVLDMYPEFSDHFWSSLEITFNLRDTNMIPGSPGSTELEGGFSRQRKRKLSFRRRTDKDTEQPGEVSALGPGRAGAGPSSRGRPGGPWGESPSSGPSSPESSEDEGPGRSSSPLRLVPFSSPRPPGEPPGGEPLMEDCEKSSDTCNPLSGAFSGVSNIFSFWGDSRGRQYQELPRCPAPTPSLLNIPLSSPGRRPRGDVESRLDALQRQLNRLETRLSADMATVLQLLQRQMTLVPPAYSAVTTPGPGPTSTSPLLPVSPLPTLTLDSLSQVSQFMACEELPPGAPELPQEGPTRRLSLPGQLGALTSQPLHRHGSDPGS

| Compound | hERG current change (%, negative = inhibition) at 1uM |
| --- | --- |
| Cc1cccc(C(=O)N/C(=C/c2ccco2)C(=O)N2CCCCCC2)c1 | 18.3% |
| CN(C)C1=C(C#N)C(c2ccccc2)=NP(N(C)C)(N(C)C)=N1 | 3.39% |
| OC(CC#CCN1CCCC1)(c1ccccc1)c1ccccc1 | 9.61% |
| CCOC(=O)C(=O)/C(C#N)=C/Nc1ccc(F)cc1 | 13.9% |
| O=C(N/N=C/C(Br)=C/c1ccccc1)C1CC1 | 18.9% |
| CC(=O)Nc1cc2c(=O)n(Cc3ccccc3)c(C)nc2cc1N1CCOCC1 | 13.6% |
| COc1cc(OC)c2ccc(=O)oc2c1C(CCN1CCCC1)c1ccc2c(c1)OCO2 (stereo not drawn) | -7.33% |
| COC(=O)Cn1cc(C=C2C(=O)N(C)C(=O)N(C)C2=O)c2ccccc21 | 15.1% |
| CCOCCCN(C(=O)Cn1nnc(-c2ccc(C)o2)n1)C(C(=O)NC1CCCC1)c1ccco1 (stereo not drawn) | 9.93% |
| O=S1CC/C(=N\O)c2ccccc21 (stereo not drawn) | 8.68% |
| CCOC(=O)C(Sc1nn(C)c(=S)s1)C(C)=O (stereo not drawn) | 3.67% |
| COCCC(=O)NNS(=O)(=O)c1ccc(Cl)cc1 | 15.9% |
| O=C1c2ccc(Oc3ccc([N+](=O)[O-])cc3)cc2C(=O)N1CCCO | -16.4% |
| Cc1ccccc1NC(=O)C(C#N)Cc1cccnc1 (stereo not drawn) | 2.57% |
| Cc1ccc(NC(=O)c2snnc2C)cc1Cl | 6.62% |
| C/C(=N/NC(=O)COc1cc(C)ccc1C(C)C)C(=O)O | 11.2% |
| CC(C)NC(=S)NCc1cccs1 | 5.54% |
| CCCCOC(=O)C1=C(N)OC2=C(C(=O)CC(C)(C)C2)[C@]12C(=O)N(C)c1ccccc12 | 18.3% |
| COc1ccc2c(c1OC)C(=O)N(c1ccc(C)cc1)C2 | 14.3% |
| Cc1ccsc1C(=O)OCC(=O)NCc1ccc(Cl)cc1 | 14% |
| COc1c(C)cc(C(=O)C2CCCN(S(=O)(=O)c3c(C)noc3C)C2)cc1C (stereo not drawn) | 10.8% |
| CC(=O)Nc1sc(N/N=C\c2ccccc2Cl)nc1-c1cccs1 | 13.3% |
| CCN(CC)C(=O)CSc1nc2c(sc(=S)n2CC)c(=O)n1-c1ccccc1 | -13.3% |

| Compound | hERG current change (%, negative = inhibition) at 1uM |
| --- | --- |
| O=C(N/N=C/c1cccc2ccccc12)c1cccs1 | 14.5% |
| CCc1nc(C)cn1S(=O)(=O)c1cc(Br)ccc1OC | 11.9% |
| Cc1ccc(S(=O)(=O)c2cccc(S(=O)(=O)N3CCCC3)c2)cc1S(=O)(=O)N1CCCC1 | -10.3% |
| Nc1c(Cl)cc(-c2csc(N3CCCC3c3nc4cc(Cl)c(N5CCCCC5)cc4n3CCOCCO)n2)cc1Cl (stereo not drawn) | 10.8% |
| O=C(CCCn1cncn1)N1CCCC(N2CCN(c3ccc(F)cc3)CC2)C1 (stereo not drawn) | 1.19% |
| CC1(C)CC(=O)C2=C(C1)NC(=O)NC2c1ccccc1 (stereo not drawn) | -6.29% |
| O=C(O)C1CCCCC1C(=O)Nc1nc(-c2cccs2)cs1 (stereo not drawn) | 7.55% |
| CSc1ccc(CCNC(=O)CCc2nnc3ccc(NCCCN4CCCC4=O)nn23)cc1 | 3.19% |
| Cc1c(C(=O)NCc2ccco2)oc2ccccc12 | 9.16% |
| Cc1cccc(OCC(=O)Nc2cccc3nsnc23)c1 | 15.3% |
| CCCCN1c2cc(C)c(O)cc2C(C(=O)OCC)C1C (stereo not drawn) | 8.7% |
| COc1ccc(CN(C)c2ncnc3sccc23)c(OC)c1OC | -1.99% |
| COc1ccc(/C=C2\C(=N\O)C3CCN2CC3)cc1.Cl | 6.07% |
| O=C(CS(=O)(=O)c1ccccc1)Nc1nnc(Cc2ccccc2)s1 | 10.8% |
| Cc1ccc(Cn2ccc(NC(=O)c3nn(C)cc3[N+](=O)[O-])n2)cc1 | 12.2% |
| COc1cc(/C=C2/C(=N)N3C(SC)=NSC3=NC2=O)ccc1OC(=O)c1ccco1 | 16.4% |
| COc1ccc(N2C(=O)CC(Sc3ccccc3C(=O)O)C2=O)c([N+](=O)[O-])c1 (stereo not drawn) | 15% |
| CC(=O)NC12CC3CC(C1)CC(C(=O)Nc1nc4ccc(S(C)(=O)=O)cc4s1)(C3)C2 | 11.8% |
| CC1CCCN(c2nc(-c3cccnc3)nc3scc(-c4ccccc4)c23)C1 (stereo not drawn) | 9.7% |
| CCCn1cc(SCC(=O)Nc2nnc(C)s2)c2ccccc21 | 16% |
| CCOC(=O)CNc1ccc(C(=O)OCC)cc1[N+](=O)[O-] | 4.36% |
| Cc1ccc(S[C@@H](CCN2CC[C@H](O)CCC2=O)c2ccccc2)cc1 | 9.99% |
| CCN(CCO)c1ncnc2c1sc1nc(CC(C)C)c3c(c12)CC(C)(C)OC3 | 14.1% |

| Compound | hERG current change (%, negative = inhibition) at 1uM |
| --- | --- |
| CCOC(=O)C1CCN(C(=O)COc2ccc(Br)cc2Br)CC1 | -12% |
| O=C(O)[C@H]1CCCC[C@H]1C(=O)NCCNC(=O)[C@@H]1CCCC[C@@H]1C(=O)O | 11.8% |
| Cc1nn(-c2ccc(F)cc2)c(Cl)c1/C=C(\CCC(=O)O)c1nc2ccccc2s1 | 4.11% |
| O=C1NC2c3ccccc3CC2O1 (stereo not drawn) | 14.3% |
| COc1ccc(OC)c(S(=O)(=O)N(C)CC(=O)N2CCOCC2)c1 | 12.9% |
| COc1ccccc1NC(=O)c1cnc2c(-c3ccccc3)c(C)nn2c1C | 17.9% |
| O=C(O)COc1ccc2nsnc2c1Cl | 3.81% |
| CC(CCc1ccccc1)NC(=O)CN(C)Cc1ccc(F)cc1 (stereo not drawn) | 6.38% |
| CCCCC(=O)N(CCOC)c1nnc(-c2ccc(OC)cc2)s1 | 10% |
| O=C(NCc1ccccc1)C(=O)NCC1OCCN1S(=O)(=O)c1ccc(Br)cc1 (stereo not drawn) | 8.89% |
| O=C(NC1CCS(=O)(=O)C1)C1CCCCN1S(=O)(=O)c1ccc(Cl)cc1 (stereo not drawn) | 9.91% |
| COC(=O)c1ccccc1NC(=O)CSc1nncn1-c1cccnc1 | 3.72% |
| CN1CCNC(=O)C1CC(=O)O (stereo not drawn) | 5.33% |
| Cn1c(=O)c2c(SCC(=O)N3CCCC3)nc(-c3ccccc3)nc2n(C)c1=O | 15% |
| O=S(=O)(c1cccc(F)c1)N1CCN(Cc2cc3c(cc2Br)OCCO3)CC1 | 15% |
| Cc1c(C(=O)OCC(=O)N2CC(C)CC(C)C2)oc2ccccc12 (stereo not drawn) | 7.8% |
| COc1ccc(N2CCN(c3oc(Cc4cccc5ccccc45)nc3C#N)CC2)cc1 | -5.62% |
| COc1ccc(S(=O)(=O)NC2CC(=O)N(c3ccc(C)c(C)c3)C2)cc1 (stereo not drawn) | 19% |
| Nc1ccc(O)c(C(=O)O)c1 | -3.53% |
| O=c1c2cc(N3CCOCC3)ccc2[nH]c(=S)n1Cc1cccc(Cl)c1 | 4.86% |
| Fc1ccc(NC(=S)Nc2ccc(Cl)cc2)cc1 | 7.08% |
| Cc1ccc(C(=O)Nn2cnnc2)cc1[N+](=O)[O-] | 8.15% |
| C=CCc1c(C)nc(-c2ccccc2)nc1N/N=C/c1ccccc1 | -1.93% |

| Compound | hERG current change (%, negative = inhibition) at 1uM |
| --- | --- |
| CCn1c(COc2ccc(C)cc2)nnc1SCC(=O)NNC(=O)c1ccc(OC)cc1 | 9.58% |
| CCOCCn1c(CN2CCN(C(=O)c3ccco3)CC2)nc2c1c(=O)n(C)c(=O)n2C | 2.56% |
| O=C(O)c1cccc(N2C(=O)c3cc4cccc(Br)c4cc3C2=O)c1 | 12.7% |
| Cc1cc(=O)n2nc(N3CCC(C(=O)N4CCN(c5ccccc5)CC4)CC3)sc2n1 | 2.91% |
| COc1ccc(-c2noc(CCCOc3ccccc3)n2)cc1OC | -4.17% |
| CCCc1cc2nnc(SCC(=O)N(C)C3CCCCC3)n2c(N)n1 | 1.23% |
| COc1cccc(Oc2ccc(C(F)(F)F)cc2NC(=O)C2=COCCO2)c1 | -3.29% |
| CC(=O)Nc1cc(C(=O)OCC(=O)c2ccc(C)cc2)ccc1C | 12.3% |
| Clc1ccccc1CSc1nnc(Cn2cnc3ccccc32)n1-c1ccccc1 | 3.69% |
| COC(=O)NCC(c1cccnc1)N1CCN(c2ccccc2OC)CC1 (stereo not drawn) | 1.22% |
| CCN(CC)S(=O)(=O)c1ccc(Cl)c(C(=O)Nc2cc(C)nn2-c2ccccc2)c1 | -2.61% |
| CCCOc1ccc(-c2nc3c(c(=O)[nH]c(=O)n3Cc3ccccc3)n2CCO)cc1OCC | 3.51% |
| Cc1nnc(SCCC#N)n(CCC#N)c1=O | 11.6% |
| Cc1nn(C)cc1C(C)NC(=O)c1cc(COc2c(F)cccc2F)on1 (stereo not drawn) | 7.63% |
| C/C(=N\Nc1nc2ccccc2[nH]1)c1ccc(N2CCOCC2)cc1 | 8.59% |
| NCCN1CCN(S(=O)(=O)c2ccc([N+](=O)[O-])cc2)C=C1c1ccc(Cl)cc1 | -5.08% |
| CCn1ncc(/C=C/C(=O)C2CC2)c1C | 21.8% |
| O=C(Nc1ccc2ncccc2c1)c1cccc(Br)c1 | 8.61% |
| COc1cccc(NC(=O)Cn2c3ccccc3c3nc4n(c(=O)c32)CCCS4)c1 | 19.5% |
| COc1ccc(CNC(=O)C(c2ccco2)N(C(=O)Cc2cccs2)c2cccnc2)cc1 (stereo not drawn) | -2.09% |
| CCOC(=O)c1c(C)[nH]c(=S)c(C#N)c1-c1ccccc1 | 14.1% |
